Laboratory results: PubChem BioAssay AID504332 (National Center for Advancing Translational Sciences (NCATS), 2011)
Out of some 350,000 compounds screened, about 31,000 (8.9%) were called active. The inconclusive results got no clear call from the source; some entries with a clear call stand among them for comparison. Calls follow the shape of the dose curve; as a rule, active = well fitted inhibition curve with a large enough effect; inconclusive = small, poorly fitted or top-dose-only effect; inactive = no such curve, though single readings can be large or run the other way. Potencies of inconclusive entries are doubtful fits and often do not repeat.

The compounds below were run against Histone-lysine N-methyltransferase EHMT2 (Homo sapiens) (UniProt Q96KQ7) (assay: qHTS Assay for Inhibitors of Histone Lysine Methyltransferase G9a). Details: G9a H3K9 monomethylation, AlphaScreen, 2 h; activity, negative = inhibition: at 59 µM (top of the series) unless noted.
UniProt Q96KQ7, sequence (Q96KQ7 whole entry, looked up): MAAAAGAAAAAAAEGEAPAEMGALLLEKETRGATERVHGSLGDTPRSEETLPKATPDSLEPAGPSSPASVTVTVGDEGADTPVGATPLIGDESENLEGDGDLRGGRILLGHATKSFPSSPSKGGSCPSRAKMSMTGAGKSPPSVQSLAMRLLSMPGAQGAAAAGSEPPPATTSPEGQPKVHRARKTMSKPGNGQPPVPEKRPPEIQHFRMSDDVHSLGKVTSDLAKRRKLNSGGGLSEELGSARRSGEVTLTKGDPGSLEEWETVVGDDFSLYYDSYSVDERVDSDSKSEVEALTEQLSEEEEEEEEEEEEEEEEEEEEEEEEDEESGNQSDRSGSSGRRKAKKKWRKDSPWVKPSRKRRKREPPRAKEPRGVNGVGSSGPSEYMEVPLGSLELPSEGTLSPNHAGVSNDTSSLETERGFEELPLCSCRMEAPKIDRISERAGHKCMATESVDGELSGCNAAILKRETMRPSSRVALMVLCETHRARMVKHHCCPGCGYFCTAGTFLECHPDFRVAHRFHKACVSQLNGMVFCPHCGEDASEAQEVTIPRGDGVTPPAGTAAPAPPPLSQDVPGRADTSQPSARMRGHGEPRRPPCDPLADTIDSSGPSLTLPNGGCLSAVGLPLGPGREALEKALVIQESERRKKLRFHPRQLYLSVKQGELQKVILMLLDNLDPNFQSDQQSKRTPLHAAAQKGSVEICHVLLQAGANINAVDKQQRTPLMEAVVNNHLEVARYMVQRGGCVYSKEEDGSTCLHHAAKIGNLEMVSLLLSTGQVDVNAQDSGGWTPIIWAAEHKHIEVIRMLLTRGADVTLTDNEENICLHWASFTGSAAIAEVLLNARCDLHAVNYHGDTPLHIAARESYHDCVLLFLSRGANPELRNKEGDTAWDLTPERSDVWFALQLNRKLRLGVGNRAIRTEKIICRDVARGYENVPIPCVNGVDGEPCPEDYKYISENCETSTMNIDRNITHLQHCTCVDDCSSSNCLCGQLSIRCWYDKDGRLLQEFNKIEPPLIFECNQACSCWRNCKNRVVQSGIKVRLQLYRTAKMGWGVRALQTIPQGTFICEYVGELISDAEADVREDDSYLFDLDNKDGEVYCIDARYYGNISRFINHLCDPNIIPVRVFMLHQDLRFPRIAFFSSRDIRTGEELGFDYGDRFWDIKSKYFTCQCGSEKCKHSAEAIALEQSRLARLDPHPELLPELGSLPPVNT
Outline: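 Compounds were preincubated with 20 nM G9a for 15 min, after which biotinylated H3K9 peptide (500 nM) and SAM (20 uM) started a 2 h room-temperature reaction. Monomethylated product was quantified by antibody-based AlphaScreen chemiluminescence.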
% is scaled to controls: 0 for no effect and ±100 for the full control effect; potency is read from the fitted curve at half-maximal effect; tags tell the direction and shape of the fitted curve.
Also: nearly all actives have a fitted effect of over 75% in size.

Row | Compound | Potency | activity, negative = inhibition
1 | CCN(CC)C(=O)c1sc2nc(-c3ccccc3)ccc2c1N | active: 17.8 µM | –
2 | CCOC(=O)C1(CCOc2ccccc2)CCN(Cc2ccc(COC)o2)CC1 | inconclusive: 39.8 µM [inhibitor, partial curve, poor fit] | –
3 | Cc1nnc(SCC(=O)N(C(C)C)C(C)C)nc1C | inconclusive: 56.2 µM [inhibitor, partial curve, poor fit] | –
4 | COc1cccc(-c2ccc3ncnc(NCCc4c[nH]c5ccc(OC)cc45)c3c2)c1 | – | inactive: 5.78% [at 0.501 µM]
5 | CC1=NOC(=O)/C1=C\c1ccc(-c2ccc(Cl)c(C(=O)O)c2)o1 | active: 15.8 µM | –
6 | Cc1cccc(-n2nc3c(c2NC(=O)c2ccco2)CSC3)c1C | active: 39.8 µM | –
7 | CCN(CC)c1ccc(NC(=O)C2CCN(S(=O)(=O)c3ccc4c(c3)oc(=O)n4C)CC2)c(C)c1 | inconclusive: 3.16 µM [inhibitor, full curve] | –
8 | CCC(CC)C(=O)Nc1nnc(S(=O)(=O)Nc2ccccc2C)s1 | inconclusive: 1.58 µM [inhibitor, partial curve, poor fit] | –
9 | Cc1ccc(Cn2nnc3c(=O)n(Cc4ccccc4C)cnc32)cc1 | inconclusive: 3.16 µM [inhibitor, partial curve, poor fit] | –
10 | C=CCn1c(SCc2nc3ccccc3[nH]2)nnc1-c1ccncc1 | inactive | –
11 | O=C(c1ccccc1)c1ccc(OCCCN2CCCC2)cc1 | active: 2.51 µM | –
12 | CCOC(=O)N1CCc2c(sc(NCc3cccs3)c2C(=O)Nc2cc(Cl)ccc2OC)C1 | active: 1.12 µM | –
13 | CC(=O)N1CCOc2ccc(S(=O)(=O)N3CCC(C(=O)Nc4ccccc4F)CC3)cc21 | inactive | –
14 | CCOC(=O)c1ccc(NS(=O)(=O)c2ccc3c(c2)CCN3C(=O)CC)cc1 | inconclusive: 31.6 µM [inhibitor, partial curve, poor fit] | –
15 | Cc1cccc(COc2ccc(S(=O)(=O)N3CCOCC3)cc2[N+](=O)[O-])c1 | inconclusive: 50.1 µM [inhibitor, partial curve] | –
16 | O=C1CC(c2ccsc2)c2cc3c(cc2N1)OCCO3 (centres undefined) | inconclusive: 89.1 µM [inhibitor, partial curve, poor fit] | –
17 | CCn1nc(CC(=O)Nc2nnc(CC(=O)N3CCCCC3)s2)c2ccccc2c1=O | inconclusive: 89.1 µM [inhibitor, single point] | –
18 | S=C(NCc1ccc2c(c1)OCO2)NCc1ccc2c(c1)OCO2 | inconclusive: 31.6 µM [inhibitor, single point] | –
19 | Cc1[nH]c(C(=O)N/N=C/c2ccc(N(C)C)cc2)c(C)c1C(=O)N/N=C/c1ccc(N(C)C)cc1 | inconclusive: 39.8 µM [inhibitor, partial curve, poor fit] | –
20 | S=c1[nH]nc2c3c4c(sc3ncn12)CCCC4 | active: 1.12 µM | –
21 | COc1ccc(N2C(=O)/C(=C\c3ccco3)N=C2SCC(=O)NC(C)C)cc1Cl | inconclusive: 25.1 µM [inhibitor, single point] | –
22 | CC(C)(C)OC(=O)N1CCC(c2c(C(=O)N3CCN(c4ccccn4)CC3)cnn2-c2cccc(F)c2)CC1 | inactive | –
23 | COC(=O)C1=C(C)N(c2ccc(OC)c(OC)c2)C(=O)/C1=C\c1cccs1 | inconclusive: 56.2 µM [inhibitor, partial curve, poor fit] | –

Row | Compound | Potency | activity, negative = inhibition
24 | CCOC(=O)c1c(CSc2ccccc2)oc2ccc(O)cc12 | inactive | –
25 | CCOC(=O)c1cc(-c2ccccc2)n(CCC(=O)NCCc2ccc(C)cc2)c1C | inconclusive: 11.2 µM [inhibitor, partial curve, poor fit] | –
26 | CC1CCCC(C(=O)O)N1C(=O)CCSSCCC(=O)N1C(C)CCCC1C(=O)O (centres undefined) | inconclusive: 89.1 µM [inhibitor, single point] | –
27 | CCN(CC)C(=O)C(=O)N/N=C/c1ccc(Br)cc1 | inactive | –
28 | Cc1ccc(S(=O)(=O)c2nnn(CC(=O)Nc3ccccc3C)c2N)cc1 | inactive | –
29 | COc1ccc(-n2nc(C(=O)N3CCCCC3)c3c4ccccc4n(C)c3c2=O)cc1Cl | inactive | –
30 | S=c1[nH]nc(-c2cc(-c3ccco3)[nH]n2)n1-c1ccccc1 | – | inactive: -20.1% [at 0.501 µM]
31 | CCOC(=O)c1cc(C(=O)Nc2ccc(S(=O)(=O)Nc3ccc(OC)cc3)cc2)nn1C | inactive | –
32 | Cc1ccc(NC(=O)COc2cccnc2[N+](=O)[O-])cc1S(=O)(=O)N1CCCCC1 | inconclusive: 89.1 µM [inhibitor, single point] | –
33 | COc1cc(/C=C2\SC(=Nc3ccc(F)cc3)N(c3ccc(F)cc3)C2=O)ccc1OCC(=O)O | inconclusive: 44.7 µM [inhibitor, partial curve] | –
34 | O=C(CSc1ccc2nnc(-c3cccnc3)n2n1)N1CCOCC1 | inconclusive: 56.2 µM [inhibitor, partial curve, poor fit] | –
35 | Oc1c(Cl)cc(Cl)cc1C=Nc1cc(C(F)(F)F)ccc1N1CCc2ccccc2C1 | – | inactive: 5.75% [at 2.33 µM]
36 | CSc1nc(N)c2ncn([C@@H]3O[C@H](COP(=O)(O)OP(=O)(O)O)C(O)[C@H]3O)c2n1 (some centres undefined) | active: 9.47 µM | –
37 | CCN(CC1CCCN(CCc2cccc(F)c2)C1)C(=O)c1ccc(CSC)o1 (centres undefined) | inconclusive: 79.4 µM [inhibitor, single point] | –
38 | CC(C)Cn1cnc2c1c(=O)n(CC(=O)O)c(=O)n2Cc1ccccc1 | inconclusive: 79.4 µM [inhibitor, single point] | –
39 | CCc1ccc(-c2nc(CN3CCC(C(=O)NCCN(CC)c4ccccc4)CC3)c(C)o2)cc1 | inconclusive: 28.2 µM [inhibitor, single point] | –
40 | CCC(C)NCCCCOc1ccc(Cl)cc1C (centres undefined) | inconclusive: 35.5 µM [inhibitor, single point] | –
41 | O=C(/C(=C(\O)c1ccccc1)c1nc2ccccc2[nH]1)c1ccccc1 | inconclusive: 8.91 µM [inhibitor, partial curve, poor fit] | –
42 | COc1ccc(-c2onc(C)c2-c2ccc(C(=O)OC(C)C)o2)c(O)c1 | inconclusive: 39.8 µM [inhibitor, partial curve, poor fit] | –
43 | CC(=O)c1sc2nc(-c3ccc(C)cc3)c3c(c2c1N)CCCC3 | inactive | –
44 | CCOC(=O)c1cccc(NC(=O)c2cc(C)nc3c2c(C)nn3-c2ccc(C)cc2)c1 | inactive | –
45 | O=C(Nc1ccc2oc(-c3ccccc3)nc2c1)c1cc(-n2cnnc2)ccc1Cl | inconclusive: 89.1 µM [inhibitor, partial curve, poor fit] | –
46 | COC(=O)C(c1ccccc1)N(Cc1cccc(CN(C(C(=O)OC)c2ccccc2)S(C)(=O)=O)c1)S(C)(=O)=O (centres undefined) | inconclusive: 89.1 µM [inhibitor, single point] | –

Row | Compound | Potency | activity, negative = inhibition
47 | COC(=O)[C@H](C)NC(=O)/C=C/c1ccc(OC)cc1 | active: 70.8 µM | –
48 | CCOC(=O)c1ccc(NC(=O)C2=C(C)C(=O)OC23CCN(C(C)=O)CC3)cc1 | inactive | –
49 | O=C(NCCc1ccc(Cl)cc1)C12CC3CC(CC(O)(C3)C1)C2 | inconclusive: 6.31 µM [inhibitor, partial curve, poor fit] | –
50 | CC(C)CCN1CCN(Cc2ccsc2)CC1CCO (centres undefined) | inactive | –
51 | CCc1cc(=O)oc2c(CNC(Cc3ccccc3)C(=O)O)c(O)ccc12 (centres undefined) | inactive | –
52 | COc1cc(NC(=O)CCN2CCN(c3ccccc3)CC2)cc(OC)c1 | inactive | –
53 | CC(C)NC(=O)N(O)C1N(Cc2ccc3c(c2)OCO3)C(=S)SC1(C)C (centres undefined) | inconclusive: 89.1 µM [inhibitor, partial curve, poor fit] | –
54 | CCN1CCN(c2ccc(NC(=O)c3ccc(Cl)c(N4CCCC4=O)c3)cc2)CC1 | inconclusive: 79.4 µM [inhibitor, single point] | –
55 | Cn1c(=O)c2c(ncn2CC(=O)OCc2ccccc2)n(C)c1=O | inconclusive: 89.1 µM [inhibitor, single point] | –
56 | CC(Oc1ccccc1)C(=O)Nc1ccc(F)c(S(=O)(=O)N2CCOCC2)c1 (centres undefined) | inactive | –
57 | O=C(O)c1cccnc1Cl | inconclusive: 20 µM [inhibitor, single point] | –
58 | O=C(CN1C(=O)C2CCCCN2C(=O)c2ccccc21)Nc1ccc(F)cc1 (centres undefined) | inactive | –
59 | CCOCCCNC(=O)C(NC(=O)C1CCC(=O)N1)c1ccc(C)cc1 (centres undefined) | inconclusive: 89.1 µM [inhibitor, partial curve, poor fit] | –
60 | COc1ccc(Cl)cc1NC(=O)Cn1c(=O)n(Cc2ccc(F)cc2)c(=O)c2cccnc21 | inactive | –
61 | CCCCNC(=S)N/N=C/c1cc(C)ccc1C | inactive | –
62 | CC(=O)N1CCN(CC(O)COc2ccc(Br)cc2)CC1 (centres undefined) | active: 8.91 µM | –
63 | O=C(O)/C=C\C(=O)Nc1ccc(F)c(F)c1F | active: 39.8 µM | –
64 | O=c1c2sccc2nc(SCc2cc(=O)n3cc(Br)ccc3n2)n1Cc1ccccn1 | inconclusive: 50.1 µM [inhibitor, partial curve, poor fit] | –
65 | CCOC(=O)c1ccc(NC(=O)Cn2cccc2)cc1 | inconclusive: 89.1 µM [inhibitor, single point] | –
66 | Cc1ccc(NC(=O)Cn2c(=O)n(CCC(C)C)c(=O)c3cccnc32)cc1C | inactive | –
67 | CC(C)(C)c1ccc(NC(=O)NCc2ccco2)cc1 | inconclusive: 50.1 µM [inhibitor, partial curve, poor fit] | –
68 | CCOC(=O)c1c(C)c(C(=O)Nc2ccc3c(c2)OCCO3)c(C)n1CC | inconclusive: 70.8 µM [inhibitor, partial curve, poor fit] | –
69 | COc1cc(NS(=O)(=O)c2ccc(Br)cc2)c(OC)cc1NC(=O)c1ccco1 | inconclusive: 3.98 µM [inhibitor, single point] | –
